# Measured values published in the supplement of paper PMC8728848.
# Some of the results follow.
# Legend:
# Assay in all cases: glycan array binding signal (z-score within array); higher = stronger binding
# Details in all cases: glycan notation: IUPAC condensed, linker removed
# [1] = target: GlcNAc(a1-4)Gal(b1-4)GlcNAc(b1-3)Gal(b1-4)GlcNAc
# Summary of the method: (§1)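 Glycan array data were curated from 3228 arrays in the Consortium for Functional Glycomics database and kept only where the protein sequence was available. Glycan names were converted to IUPAC-condensed notation, and columns mapping to the same glycan were averaged. The binding signal is a within-array Z-score, averaged across arrays of the same protein sequence at different concentrations or buffers and across linkers. Negative Z-scores can be read as non-binding.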
# [2] = target: GlcNAc(a1-4)Gal(b1-4)GlcNAc(b1-3)Gal(b1-4)GlcNAc(b1-3)Gal(b1-4)GlcNAc
# Summary of the method: as §1
# [3] = target: GlcNAc(a1-4)Gal(b1-4)GlcNAc(b1-3)Gal(b1-4)[Fuc(a1-3)]GlcNAc(b1-3)Gal(b1-4)[Fuc(a1-3)]GlcNAc
# Summary of the method: as §1
# [4] = target: GlcNAc(a1-6)Gal(b1-4)GlcNAc
# Summary of the method: as §1
# [5] = target: GlcNAc(b1-2)Gal(b1-3)GalNAc
# Summary of the method: as §1
# [6] = target: GlcNAc(b1-2)Man(a1-3)[GlcNAc(b1-2)Man(a1-6)]Man(b1-4)GlcNAc(b1-4)GlcNAc
# Summary of the method: as §1
# [7] = target: GlcNAc(b1-2)Man(a1-3)[GlcNAc(b1-2)Man(a1-6)]Man(b1-4)GlcNAc(b1-4)[Fuc(a1-6)]GlcNAc
# Summary of the method: as §1
# [8] = target: GlcNAc(b1-2)Man(a1-3)[GlcNAc(b1-4)][GlcNAc(b1-2)Man(a1-6)]Man(b1-4)GlcNAc(b1-4)GlcNAc
# Summary of the method: as §1
# [9] = target: GlcNAc(b1-2)[GlcNAc(b1-4)]Man(a1-3)[GlcNAc(b1-2)Man(a1-6)]Man(b1-4)GlcNAc(b1-4)GlcNAc
# Summary of the method: as §1
# [10] = target: GlcNAc(b1-2)[GlcNAc(b1-4)]Man(a1-3)[GlcNAc(b1-4)][GlcNAc(b1-2)Man(a1-6)]Man(b1-4)GlcNAc(b1-4)GlcNAc
# Summary of the method: as §1
# [11] = target: GlcNAc(b1-2)[GlcNAc(b1-4)]Man(a1-3)[GlcNAc(b1-4)][GlcNAc(b1-2)[GlcNAc(b1-6)]Man(a1-6)]Man(b1-4)GlcNAc(b1-4)GlcNAc
# Summary of the method: as §1
# [12] = target: GlcNAc(b1-2)[GlcNAc(b1-6)]Man(a1-6)[GlcNAc(b1-2)Man(a1-3)]Man(b1-4)GlcNAc(b1-4)GlcNAc
# Summary of the method: as §1
# [13] = target: GlcNAc(b1-2)[GlcNAc(b1-6)]Man(a1-6)[GlcNAc(b1-2)Man(a1-3)][GlcNAc(b1-4)]Man(b1-4)GlcNAc(b1-4)GlcNAc
# Summary of the method: as §1
# GlcNAc(b1-3)Gal = target: GlcNAc(b1-3)Gal
# Summary of the method: as §1
# [14] = target: GlcNAc(b1-3)Gal(b1-3)GalNAc
# Summary of the method: as §1
# GlcNAc(b1-3)Gal(b1-4)Glc = target: GlcNAc(b1-3)Gal(b1-4)Glc
# Summary of the method: as §1
# [15] = target: GlcNAc(b1-3)Gal(b1-4)GlcNAc
# Summary of the method: as §1
# [16] = target: GlcNAc(b1-3)Gal(b1-4)GlcNAc(b1-3)Gal(b1-4)GlcNAc
# Summary of the method: as §1
# GlcNAc(b1-3)GalNAc = target: GlcNAc(b1-3)GalNAc
# Summary of the method: as §1
# GlcNAc(b1-3)Man = target: GlcNAc(b1-3)Man
# Summary of the method: as §1
# [17] = target: GlcNAc(b1-3)[GlcNAc(b1-4)][GlcNAc(b1-6)]GlcNAc
# Summary of the method: as §1
# [18] = target: GlcNAc(b1-3)[GlcNAc(b1-6)]Gal(b1-4)GlcNAc
# Summary of the method: as §1
# [19] = target: GlcNAc(b1-3)[GlcNAc(b1-6)]GalNAc
# Summary of the method: as §1
# [20] = target: GlcNAc(b1-4)Gal(b1-4)GlcNAc
# Summary of the method: as §1
# GlcNAc(b1-4)GlcNAc = target: GlcNAc(b1-4)GlcNAc
# Summary of the method: as §1
# [21] = target: GlcNAc(b1-4)GlcNAc(b1-4)GlcNAc
# Summary of the method: as §1
# [22] = target: GlcNAc(b1-4)GlcNAc(b1-4)GlcNAc(b1-4)GlcNAc(b1-4)GlcNAc
# Summary of the method: as §1
# [23] = target: GlcNAc(b1-4)GlcNAc(b1-4)GlcNAc(b1-4)GlcNAc(b1-4)GlcNAc(b1-4)GlcNAc
# Summary of the method: as §1
# [24] = target: GlcNAc(b1-4)[GlcNAc(b1-6)]GalNAc
# Summary of the method: as §1
# [25] = target: GlcNAc(b1-6)Gal(b1-4)GlcNAc
# Summary of the method: as §1
# GlcNAc(b1-6)GalNAc = target: GlcNAc(b1-6)GalNAc
# Summary of the method: as §1
# GlcNAc3Prop(b1-4)GlcNAc = target: GlcNAc3Prop(b1-4)GlcNAc
# Summary of the method: as §1
# [26] = target: GlcNAc6S(b1-3)Gal(b1-4)GlcNAc
# Summary of the method: as §1
# Kdn(a2-3)Gal(b1-3)GalNAc = target: Kdn(a2-3)Gal(b1-3)GalNAc
# Summary of the method: as §1
# Kdn(a2-3)Gal(b1-3)GlcNAc = target: Kdn(a2-3)Gal(b1-3)GlcNAc
# Summary of the method: as §1
# Kdn(a2-3)Gal(b1-4)Glc = target: Kdn(a2-3)Gal(b1-4)Glc
# Summary of the method: as §1
# Kdn(a2-3)Gal(b1-4)GlcNAc = target: Kdn(a2-3)Gal(b1-4)GlcNAc
# Summary of the method: as §1
# [27] = target: Kdn(a2-3)Gal(b1-4)[Fuc(a1-3)]GlcNAc
# Summary of the method: as §1
# Kdn(a2-6)Gal(b1-4)GlcNAc = target: Kdn(a2-6)Gal(b1-4)GlcNAc
# Summary of the method: as §1
# [28] = target: Man(a1-2)Man(a1-2)Man(a1-3)Man
# Summary of the method: as §1
# [29] = target: Man(a1-2)Man(a1-2)Man(a1-6)[Man(a1-3)]Man
# Summary of the method: as §1
# Man(a1-2)Man(a1-3)Man = target: Man(a1-2)Man(a1-3)Man
# Summary of the method: as §1
# [30] = target: Man(a1-2)Man(a1-3)[Man(a1-2)Man(a1-6)]Man
# Summary of the method: as §1
# [31] = target: Man(a1-2)Man(a1-3)[Man(a1-2)Man(a1-6)]Man(a1-6)[Man(a1-2)Man(a1-2)Man(a1-3)]Man
# Summary of the method: as §1
# [32] = target: Man(a1-2)Man(a1-3)[Man(a1-2)Man(a1-6)]Man(a1-6)[Man(a1-2)Man(a1-2)Man(a1-3)]Man(b1-4)GlcNAc(b1-4)GlcNAc
# Summary of the method: as §1
binder,measurement,setting,value
"RS2L (Ralstonia solanacearum), B5RXL5_RALSO (protein) MAQQGVFTLPANTSFGVTAFANAANTQTIQVLVDNVVKATFTGSGTSDKLLGSQVLNSGSGAIKIQVSVNGKPSDLVSNQTILANKLNFAMVGSEDGTDNDYNDGIAVLNWPLG",glycan array binding signal (z-score),[1],-0.159
same,glycan array binding signal (z-score),[2],-0.229
same,glycan array binding signal (z-score),[3],-0.12
same,glycan array binding signal (z-score),[4],-0.232
same,glycan array binding signal (z-score),[5],-0.247
same,glycan array binding signal (z-score),[6],-0.242
same,glycan array binding signal (z-score),[7],-0.193
same,glycan array binding signal (z-score),[8],-0.232
same,glycan array binding signal (z-score),[9],-0.194
same,glycan array binding signal (z-score),[10],-0.243
same,glycan array binding signal (z-score),[11],-0.242
same,glycan array binding signal (z-score),[12],-0.187
same,glycan array binding signal (z-score),[13],-0.223
same,glycan array binding signal (z-score),GlcNAc(b1-3)Gal,-0.254
same,glycan array binding signal (z-score),[14],-0.245
same,glycan array binding signal (z-score),GlcNAc(b1-3)Gal(b1-4)Glc,-0.244
same,glycan array binding signal (z-score),[15],-0.241
same,glycan array binding signal (z-score),[16],-0.245
same,glycan array binding signal (z-score),GlcNAc(b1-3)GalNAc,-0.249
same,glycan array binding signal (z-score),GlcNAc(b1-3)Man,-0.251
same,glycan array binding signal (z-score),[17],-0.247
same,glycan array binding signal (z-score),[18],-0.245
same,glycan array binding signal (z-score),[19],-0.247
same,glycan array binding signal (z-score),[20],-0.24
same,glycan array binding signal (z-score),GlcNAc(b1-4)GlcNAc,-0.244
same,glycan array binding signal (z-score),[21],-0.243
same,glycan array binding signal (z-score),[22],-0.247
same,glycan array binding signal (z-score),[23],-0.248
same,glycan array binding signal (z-score),[24],-0.243
same,glycan array binding signal (z-score),[25],-0.247
same,glycan array binding signal (z-score),GlcNAc(b1-6)GalNAc,-0.245
same,glycan array binding signal (z-score),GlcNAc3Prop(b1-4)GlcNAc,-0.254
same,glycan array binding signal (z-score),[26],-0.246
same,glycan array binding signal (z-score),Kdn(a2-3)Gal(b1-3)GalNAc,-0.218
same,glycan array binding signal (z-score),Kdn(a2-3)Gal(b1-3)GlcNAc,-0.239
same,glycan array binding signal (z-score),Kdn(a2-3)Gal(b1-4)Glc,-0.242
same,glycan array binding signal (z-score),Kdn(a2-3)Gal(b1-4)GlcNAc,-0.25
same,glycan array binding signal (z-score),[27],-0.237
same,glycan array binding signal (z-score),Kdn(a2-6)Gal(b1-4)GlcNAc,-0.251
same,glycan array binding signal (z-score),[28],1.84
same,glycan array binding signal (z-score),[29],6.32
same,glycan array binding signal (z-score),Man(a1-2)Man(a1-3)Man,1.42
same,glycan array binding signal (z-score),[30],3.34
same,glycan array binding signal (z-score),[31],6.92
same,glycan array binding signal (z-score),[32],3.42
